Assay results taken from PubChem BioAssay AID1458 (National Center for Advancing Translational Sciences (NCATS), 2008).
The campaign covered roughly 210,000 compounds. About 5,900 (2.8%) were called active. This list was built around the results that the source calls inconclusive (neither active nor inactive); the mix of calls is not that of the screen. The call rests on the fitted dose curve; in most records, active means well fitted activation curve with a large enough effect; inconclusive means small, poorly fitted or top-dose-only effect; inactive means no such curve, though single readings can be large or run the other way. Where the call is inconclusive, the potency comes from a doubtful curve fit.

Assay: qHTS Assay for Enhancers of SMN2 Splice Variant Expression; further: nearly all actives have a fitted effect of over 55% in size; on activity change, positive = activation: % of control where 0% means no effect
Conditions: HEK293 SMN2-luciferase splicing reporter, luminescence, 30-36 h; activity change, positive = activation: at 46.1 µM (top of the series)
Outline: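 HEK293 cells carry an SMN2 […]–luciferase reporter in which exon 7 inclusion puts luciferase in frame. Cells were plated 10-12 h before compound addition, then incubated 30-36 h at 37C. ONE-Glo luminescence was read; sodium butyrate at 4.5 mM final served as control.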
Potency means the concentration at half of the fitted maximal effect; tags describe the fitted curve by direction and shape.

Structure (SMILES) | Potency | activity change, positive = activation
COc1cc(/C=C/C(=O)O)cc(S(=O)(=O)Nc2ccccc2Cl)c1OC | inconclusive: 1.41 µM [activator, full curve, poor fit] | –
CC1(C)CC(=O)CC(C2(O)C(=O)N(Cc3ccccc3)c3ccccc32)O1 (configuration not stated) | inconclusive: 0.199 µM [activator, full curve, poor fit] | –
CCC(C)N1C(=O)CCC1C(=O)O (configuration not stated) | inconclusive: 5.62 µM [activator, single point] | –
CCCC(=O)Nc1ncnc2c1ncn2C1OC2COP(=O)(O)OC2C1OC(=O)CCC (configuration not stated) | inconclusive: 5.62 µM [activator, full curve] | –
CS(=O)(=O)Nc1cccc(C2=NN(C(=O)c3ccccc3Cl)C(c3ccccc3O)C2)c1 (configuration not stated) | inconclusive: 8.91 µM [activator, partial curve, poor fit] | –
COc1ccc(NC(C)=O)cc1NC(=O)CSc1nc2ncccc2[nH]1 | – | inconclusive: 33.5% [activator]
Cc1cc(N=Cc2c(O)n(-c3cccc(Cl)c3)c(=O)c3ccccc23)no1 | – | inactive: 4.62%
Cc1ccc(NC(=O)Cn2cc(S(=O)(=O)N3CCC(C)CC3)c3ccccc3c2=O)c(Br)c1 | – | inactive: -4.67%
COC(=O)c1ccc(N2C(=O)CC(N(C)Cc3ccccc3)C2=O)cc1 (configuration not stated) | inconclusive: 11.2 µM [activator, partial curve, poor fit] | –
Clc1cccc(N/N=C/c2ccc(N3CCOCC3)cc2)c1 | inconclusive: 10 µM [activator, partial curve] | –
Cc1csc(NC(=O)/C=C/c2ccc(C)o2)n1 | active: 20 µM | –
O=C(Nc1nncs1)c1cc2c(s1)CCC2 | inconclusive: 17.8 µM [activator, partial curve] | –
Cc1ccc(C)c(NC(=S)NCc2cccs2)c1 | inconclusive: 11.2 µM [activator, partial curve] | –
CC1CCCN(c2nc3c(c(=O)n(C)c(=O)n3C)n2CCSc2nc3ccccc3s2)C1 (configuration not stated) | inconclusive: 2.51 µM [activator, partial curve] | –
O=C(NC(=S)NCCN1CCOCC1)c1ccc(F)cc1 | inconclusive: 1.12 µM [activator, full curve, poor fit] | –
O=C(O)c1ccc(NC(=O)c2cc3ccccc3o2)cc1 | active: 6.31 µM | –
CCCCNC(=S)NC(C)(C)CO | – | inactive: 8.56%
COc1cc(C(C)=O)cc(OC)c1O | – | inactive: -0.274%
COc1ccc(Nc2nc(-c3c[nH]c4ccccc34)cs2)cc1 | inconclusive: 0.02 µM [activator, full curve, poor fit] | –
Cc1ccc2nc(-c3ccc(NC(=O)CN4CCN(C(=O)c5ccco5)CC4)cc3)sc2c1 | inconclusive: 35.5 µM [activator, single point] | –
COc1ccc(CN2CC(C(=O)NCc3ccccn3)CC2=O)cc1 (configuration not stated) | inconclusive: 20 µM [activator, single point] | –
CCc1nnc(NC(=O)OCc2ccccc2)s1 | inconclusive: 12.6 µM [activator, partial curve] | –
O=C(O)Cc1cc(I)c(Oc2ccc(O)c(I)c2)c(I)c1 | inconclusive: 20 µM [activator, single point] | –
Cc1cc(NC(=O)C2CCCCC2C(=O)O)no1 (configuration not stated) | inconclusive: 35.5 µM [activator, single point] | –

Structure (SMILES) | Potency | activity change, positive = activation
Cc1ccc(C)c2[nH]c(=O)c(CCNC(=O)c3ccc(S(=O)(=O)N(C)C)cc3)cc12 | inconclusive: 3.98 µM [activator, partial curve, poor fit] | –
COC(=O)c1c(NC(=O)c2ccco2)sc(C(=O)Nc2ccc(F)cc2)c1C | inconclusive: 6.31 µM [activator, partial curve] | –
CN(C)CCCNC1CS(=O)(=O)CC1O (configuration not stated) | inconclusive: 1.58 µM [activator, full curve] | –
CCCCSc1nnc2c(n1)OC(C)N(C(C)=O)c1ccccc1-2 (configuration not stated) | inconclusive: 12.6 µM [activator, single point] | –
CCOc1ncccc1C(=O)NCc1ccc(OC)cc1 | inconclusive: 11.2 µM [activator, partial curve, poor fit] | –
CC1(C)Cc2c(sc(NC(=O)c3ccco3)c2C(=O)O)CO1 | inconclusive: 14.1 µM [activator, single point] | –
CC(=O)Nc1cccc(NC(=O)c2oc3ccccc3c2C)c1 | active: 11.2 µM | –
COc1cc(-c2nc(-c3cccc(C(F)(F)F)c3)no2)cc(OC)c1OC | – | inactive: -55.9%
CCC1CCCCN1CCCNC(=O)CCCOc1cc(=O)n(C)c2ccccc12 (configuration not stated) | inconclusive: 8.91 µM [activator, partial curve] | –
CCc1ccc(NC(=O)C(=O)NCC2CCCO2)cc1 (configuration not stated) | active: 11.2 µM | –
COc1cc(OC)cc(-c2nc(N)n[nH]2)c1 | inconclusive: 0.01 µM [activator, full curve, poor fit] | –
CCOC(=O)c1c(Oc2ccc(C(C)=O)cc2)nnc(-c2ccccc2)c1-c1ccccc1 | inconclusive: 31.6 µM [activator, single point] | –
O=C1NC(=Nc2ccccc2)S/C1=C/c1cccs1 | inconclusive: 22.4 µM [activator, single point] | –
Cc1ccsc1/C=N/Nc1ncc(Cl)cc1Cl | inconclusive: 35.5 µM [activator, single point] | –
CCC(C(=O)NCc1ccco1)N(Cc1cccs1)C(=O)CNS(=O)(=O)c1ccccc1 (configuration not stated) | – | inconclusive: 36.4% [activator]
COc1ccc(-c2csc(NC(=O)COC(=O)c3ccc(Br)o3)n2)cc1 | active: 0.794 µM | –
COc1ccc(/C(N)=N/OC(=O)Cc2ccccc2)cc1 | inconclusive: 15.8 µM [activator, single point] | –
O=C(Nc1ccc2c(c1)OCO2)NC1CCN(Cc2ccccc2)CC1 | inconclusive: 5.62 µM [activator, partial curve, poor fit] | –
CCOc1ccc(-n2nc3ccc(NC(=O)c4ccc(-c5cccc(Cl)c5)o4)cc3n2)cc1 | – | inactive: -2.91%
CC12CCC(C(=O)Nc3nc4ccc(Br)cc4s3)(OC1=O)C2(C)C (configuration not stated) | inconclusive: 14.1 µM [activator, single point] | –
O=c1c2ccccc2nc(-c2ccco2)n1Cc1ccccc1 | inconclusive: 10 µM [activator, partial curve] | –
CC(=O)c1sc2nc(SCC(=O)N3CCCCC3)[nH]c(=O)c2c1C | inconclusive: 0.02 µM [activator, full curve, poor fit] | –
COc1ccc(C(=O)N2CCC(C(=O)Nc3ccc4c(c3)OCO4)CC2)cc1 | inconclusive: 1.26 µM [activator, single point] | –
COCCn1nnnc1C(c1cc2ccc(OC)cc2[nH]c1=O)N1CCN(C2CCCCC2)CC1 (configuration not stated) | inconclusive: 3.98 µM [activator, full curve] | –

Structure (SMILES) | Potency | activity change, positive = activation
COc1ccc(Oc2c(Cl)cnn(-c3ccccc3)c2=O)cc1 | inconclusive: 22.4 µM [activator, single point] | –
Cc1ccc2[nH]c(SCC(=O)N3CCOCC3)nc2c1C | active: 6.31 µM | –
Nc1ccc2nc(CCc3ccccc3)[nH]c2c1 | inconclusive: 0.004 µM [activator, full curve, poor fit] | –
Nc1nnc(CCN2C(=O)CSC2=O)s1 | inconclusive: 0.794 µM [activator, full curve, poor fit] | –
Cc1ccc(C=C2C(=O)c3ccccc3C2=O)s1 | – | inactive: 16%
Cc1ccsc1/C=C/c1ccc2cccc(O)c2n1 | inconclusive: 12.6 µM [activator, partial curve] | –
O=C(CSc1ccc(-c2cccs2)nn1)Nc1ccccc1F | – | inactive: -18.9%
CCOC(=O)c1ccc(NC(=O)COC(=O)c2cccc(Oc3ccccc3)c2)cc1 | – | inactive: 2.57%
O=C(O)CCCc1nc2ccccc2s1 | inconclusive: 0.0501 µM [activator, full curve] | –
COc1ccc(-n2c(=O)c(-c3ccc(Cl)cc3)nc3cncnc32)cc1 | – | inactive: -3.17%
Cc1cc(C)nc(NC(=O)/C=C/c2ccccc2Cl)c1 | active: 12.6 µM | –
CCCc1noc(-c2ccc(-c3ccccc3)cc2)n1 | inconclusive: 7.94 µM [activator, partial curve, poor fit] | –
Cc1nnc(NC(=O)C2CCCCC2)s1 | – | inconclusive: 44.4% [activator]
O=C(NCc1ccco1)c1nc2ccccc2s1 | inconclusive: 2 µM [activator, partial curve] | –
COc1ccc(/C=C/c2nc(C#N)c(NCCc3ccccc3)o2)cc1OC | – | inactive: -1.42%
COc1ccc(NC(=O)c2c(C)oc3ccc(O)c(CN4CCCCCC4)c23)cc1Cl | – | inactive: -11.8%
CC(=O)Nc1ccc(S(=O)(=O)Nc2cc(-c3cn4ccccc4n3)ccc2C)cc1 | inconclusive: 20 µM [activator, partial curve] | –
CC1(C)CC(=O)c2sc(N3CCCCC3)nc2C1 | – | inactive: -8.11%
CCN(CC)CCN1C(=O)c2ccccc2NC1c1cc(OC)c(OC)c(OC)c1 (configuration not stated) | – | inactive: -4.87%
Brc1ccc(-c2csc(N/N=C/c3ccco3)n2)cc1 | inconclusive: 31.6 µM [activator, single point] | –
O=C(C1CC(c2cccc(Br)c2)=NO1)N1CCc2ccccc2C1 (configuration not stated) | inconclusive: 3.16 µM [activator, full curve, poor fit] | –
Cc1cc(C)nc(N2CCC(C(=O)Nc3ccc4c(c3)OCCO4)CC2)n1 | – | inactive: -10%
CC1CC(C)CN(CCOc2ccc(Br)cc2)C1 (configuration not stated) | inconclusive: 35.5 µM [activator, single point] | –
Cc1ccc(NC(=O)CC2NCCNC2=O)cc1 (configuration not stated) | inconclusive: 0.0079 µM [activator, full curve, poor fit] | –
